Measured values from publication PMC7819943, “Rice protein-binding microarrays: a tool to detect cis-acting elements near promoter regions in rice”.
Some of the results follow.

Each sequence was assayed against T1, OsWOX13 (Oryza sativa, UniProt Q5QMM3 1-267) (assay: protein-binding microarray (RPBM); PBS, 2% BSA, 51.3 ng/ul salmon testes DNA, 50 uM zinc acetate, 200 nM TF, 25 C, 1 h; high values mean tight binding). Details: protein: recombinant; tags: N-terminal polyhistidine and DsRed monomer fusion (pET32a); label: CyDye5-dUTP incorporated in the synthesized complementary strand; 3' TTTTT single-stranded linker to array surface; dsDNA, one strand shown.
T1 sequence: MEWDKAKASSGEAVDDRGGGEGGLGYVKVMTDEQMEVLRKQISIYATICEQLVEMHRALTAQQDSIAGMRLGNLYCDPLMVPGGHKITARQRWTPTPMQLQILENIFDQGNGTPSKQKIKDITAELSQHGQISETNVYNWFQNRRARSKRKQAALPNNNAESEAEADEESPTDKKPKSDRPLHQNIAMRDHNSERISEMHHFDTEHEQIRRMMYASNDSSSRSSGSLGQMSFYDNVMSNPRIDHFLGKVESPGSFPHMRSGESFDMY
Outline: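 For the binding signal, per-feature fluorescence intensity was read in arbitrary units on an Axon 4000B scanner. Before scanning, a 2% BSA-blocked custom Agilent array made double-stranded with Cy5-dUTP was washed after 1 h at 25 °C with 200 nM protein and 50 µM zinc acetate. The proteins were Ni–NTA-purified transcription factors with N-terminal polyhistidine and DsRed fusions, expressed in E. coli BL21-CodonPlus.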
In the case of “CGTTAGTCCGTTTTGCTTTTCTTATTGTAGTTCAGTTCTTCGGAGTCACCTAGTGCAG”, the binding signal is reported as 3160 fluorescence intensity (a.u.). With “GGCATGCAGAGGCCGATTCATCAATCAATGGATCGATTAACGGAGTCACCTAGTGCAG” the binding signal was 3530 fluorescence intensity (a.u.). “TCTATTAATTTGCTACCCTTTCTGCATCACGGCCCTTATTCGGAGTCACCTAGTGCAG” was tested, and the binding signal was 16200 fluorescence intensity (a.u.). With “TCGTACTGTAATTACATTGTAAGTTACATGTAATTACACTCGGAGTCACCTAGTGCAG” the binding signal was 13600 fluorescence intensity (a.u.). “AGCCCTAATTTACTGTAATTAGTGTTGGCTATGTAATTAGCGGAGTCACCTAGTGCAG” was tested, and the binding signal was 44800 fluorescence intensity (a.u.). “TGTTTAGACTGAACTGCAAGGCTGTTTTGATCCGGCGGTGCGGAGTCACCTAGTGCAG” was tested, and the binding signal was 3590 fluorescence intensity (a.u.). For “ATTGACTCTTTAATTAAATCCATAACTTGAGTGCATGGTTCGGAGTCACCTAGTGCAG”, the binding signal was 11200 fluorescence intensity (a.u.). In the case of “ACTTTAATTAGTTACGGCAGATGGATGATAGTACGTAGGACGGAGTCACCTAGTGCAG”, the binding signal is reported as 26100 fluorescence intensity (a.u.). In the case of “TAATTAATCATGTGCTAATTTGCTGTTCCAATTTGCGTGTCGGAGTCACCTAGTGCAG”, the binding signal is reported as 36600 fluorescence intensity (a.u.). “CAAAATCAGATATATAACATCTATCAACTTACAAAACCGTCGGAGTCACCTAGTGCAG” was tested, and the binding signal was 3540 fluorescence intensity (a.u.). For “GGGGAGGGGAGGGGAAGATCTAGAACCGCGGGGAAGACGACGGAGTCACCTAGTGCAG”, the binding signal was 3500 fluorescence intensity (a.u.). “CTTATTGACATGTACTCCAAATCAGGGAGGTTGTCGGTAGCGGAGTCACCTAGTGCAG” was tested, and the binding signal was 11900 fluorescence intensity (a.u.). “ATAGATAAATTTAGAGGTGATAGTCACATGTACCATAGCACGGAGTCACCTAGTGCAG” was tested, and the binding signal was 11400 fluorescence intensity (a.u.). In the case of “TTAAATATATATTAAATGATTCGAACATGCATAGACAAAACGGAGTCACCTAGTGCAG”, the binding signal is reported as 3460 fluorescence intensity (a.u.). In the case of “GCTATGATTGTCTTTAGGGTATCTAATAATTGTGGTTTGACGGAGTCACCTAGTGCAG”, the binding signal is reported as 21700 fluorescence intensity (a.u.). “TAAAATTTACTCCTATGAAGATTTAAACTTAGAACCTTGGCGGAGTCACCTAGTGCAG” was tested, and the binding signal was 3670 fluorescence intensity (a.u.). “AAAACAGGTAAATTTATAATGGCATGCATCCAATTAACTCCGGAGTCACCTAGTGCAG” was tested, and the binding signal was 13800 fluorescence intensity (a.u.). In the case of “GCTGAATGCTAATCTCTGTTACTGAAACCACTCAAACACTCGGAGTCACCTAGTGCAG”, the binding signal is reported as 5180 fluorescence intensity (a.u.). In the case of “CCTGTGATGACTTCGTTAATGTCAACGTATGTCGGATGAGCGGAGTCACCTAGTGCAG”, the binding signal is reported as 11500 fluorescence intensity (a.u.). For “AGCCAAATCATCCGGACTAATCTGGACCGTCCATCCGCGCCGGAGTCACCTAGTGCAG”, the binding signal was 4540 fluorescence intensity (a.u.). In the case of “CGCATGATCAAAATTAATTCGAAAACATAATCTAGAGGATCGGAGTCACCTAGTGCAG”, the binding signal is reported as 7870 fluorescence intensity (a.u.). For “GTACCTACCAGTAATTAATCAGCAGGCTCACTGTAATCAACGGAGTCACCTAGTGCAG”, the binding signal was 3470 fluorescence intensity (a.u.). In the case of “TCTGATTTGGAGTCACAAGAAAATACTCCTCCATCCAATCCGGAGTCACCTAGTGCAG”, the binding signal is reported as 21200 fluorescence intensity (a.u.). For “CCAAAATTTACAATTTCTAGTGGCGCACGCGGGAATGCAACGGAGTCACCTAGTGCAG”, the binding signal was 13100 fluorescence intensity (a.u.). For “GATTTAAATTAATTTTGATCAAACTTATAGAAATTATAGCCGGAGTCACCTAGTGCAG”, the binding signal was 50100 fluorescence intensity (a.u.). “TGGGTCATTTATTGATTATTGTATTATTGTTCCTTATATTCGGAGTCACCTAGTGCAG” was tested, and the binding signal was 10300 fluorescence intensity (a.u.). For “CAATAATTTATGATATAGCATATTTGTTAAACCAAATAAACGGAGTCACCTAGTGCAG”, the binding signal was 5520 fluorescence intensity (a.u.). In the case of “GTAAATTACATGGAGCCCAACACCGCTTTCTATTAGGGGTCGGAGTCACCTAGTGCAG”, the binding signal is reported as 14800 fluorescence intensity (a.u.). In the case of “ATGTAATTGTAGTGTAACTATTATGTAATTGCAGTGTAACCGGAGTCACCTAGTGCAG”, the binding signal is reported as 26500 fluorescence intensity (a.u.). For “TCTGACAGGCCGAATCCTCTCCGGATCCCGGTCCATCTCCCGGAGTCACCTAGTGCAG”, the binding signal was 10200 fluorescence intensity (a.u.). In the case of “TGTAATTTAATTTTGCCTCCACATTTCCTGACTTTGGCCACGGAGTCACCTAGTGCAG”, the binding signal is reported as 45700 fluorescence intensity (a.u.). With “ATTCTGATTCTGAAAGAAACTGCAATTACCGGAAGCTCTCCGGAGTCACCTAGTGCAG” the binding signal was 3750 fluorescence intensity (a.u.). With “TACACAAACATATAATTACACGAAAACTAAGGCCGTGTTTCGGAGTCACCTAGTGCAG” the binding signal was 5170 fluorescence intensity (a.u.). For “ACCATAACTCTATCAAACACTCAATTATATCCATATGCTTCGGAGTCACCTAGTGCAG”, the binding signal was 5460 fluorescence intensity (a.u.). “TTAAATAAATCAGTTAGCAGTGCTGAAGGTTTATTGATAACGGAGTCACCTAGTGCAG” was tested, and the binding signal was 4300 fluorescence intensity (a.u.). For “ACGATGAAAATCAACTTAATTATAGAAATAGAAATCGACACGGAGTCACCTAGTGCAG”, the binding signal was 7260 fluorescence intensity (a.u.). “GGAGTTTTAATAATGATTTTAGGGTGGGTGGAAAGATTACCGGAGTCACCTAGTGCAG” was tested, and the binding signal was 3630 fluorescence intensity (a.u.). In the case of “AAAATAAACAAATCTATCCACTAACAATTTGACATGATATCGGAGTCACCTAGTGCAG”, the binding signal is reported as 7240 fluorescence intensity (a.u.). With “TAATAATTGTTAGCTGATGATGATGTGACATCTTTGCATGCGGAGTCACCTAGTGCAG” the binding signal was 28900 fluorescence intensity (a.u.). In the case of “ATCAAATCTAGCCATTGATTTTGCAGGGGTACGATCGGAACGGAGTCACCTAGTGCAG”, the binding signal is reported as 4570 fluorescence intensity (a.u.). In the case of “CTTGTATCTGTCATTGCTGGATTGGAGTGTTTCGATTTGTCGGAGTCACCTAGTGCAG”, the binding signal is reported as 4830 fluorescence intensity (a.u.). “TAGCTCAATTAAATATAGTTATACTCTAAGTTATATATGACGGAGTCACCTAGTGCAG” was tested, and the binding signal was 3260 fluorescence intensity (a.u.).
